Measurements published in PubChem BioAssay AID588579 (National Center for Advancing Translational Sciences (NCATS), 2011).
The campaign covered roughly 400,000 compounds. About 2,200 (0.55%) were called active. This list was built around the results that the source calls inconclusive (neither active nor inactive); the mix of calls is not that of the screen. Calls follow the shape of the dose curve; as a rule, active = well fitted inhibition curve with a large enough effect; inconclusive = small, poorly fitted or top-dose-only effect, or another doubt; inactive = no such curve, though single readings can be large or run the other way. Where the call is inconclusive, the potency comes from a doubtful curve fit. Where a structure was tested more than once in an assay, its records may differ in their call.

target: DNA polymerase kappa (Homo sapiens) (UniProt Q9UBT6); assay: qHTS for Inhibitors of Polymerase Kappa; conditions: purified Pol kappa, fluorescent DNA synthesis assay, 10 min; series mostly up to 107 µM
How it was run: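 Fluorescent qHTS in 1536-well format: enzyme (10 nM) and compound sat 15 min at room temperature before 50 nM substrate (final) was added. Signal taken at 0 and 10 min; no-enzyme buffer wells were negative controls.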
% is scaled to controls: 0 for no effect and ±100 for the full control effect; potency is read from the fitted curve at half-maximal effect; tags tell the direction and shape of the fitted curve.

UniProt Q9UBT6, sequence (Q9UBT6 whole entry, looked up): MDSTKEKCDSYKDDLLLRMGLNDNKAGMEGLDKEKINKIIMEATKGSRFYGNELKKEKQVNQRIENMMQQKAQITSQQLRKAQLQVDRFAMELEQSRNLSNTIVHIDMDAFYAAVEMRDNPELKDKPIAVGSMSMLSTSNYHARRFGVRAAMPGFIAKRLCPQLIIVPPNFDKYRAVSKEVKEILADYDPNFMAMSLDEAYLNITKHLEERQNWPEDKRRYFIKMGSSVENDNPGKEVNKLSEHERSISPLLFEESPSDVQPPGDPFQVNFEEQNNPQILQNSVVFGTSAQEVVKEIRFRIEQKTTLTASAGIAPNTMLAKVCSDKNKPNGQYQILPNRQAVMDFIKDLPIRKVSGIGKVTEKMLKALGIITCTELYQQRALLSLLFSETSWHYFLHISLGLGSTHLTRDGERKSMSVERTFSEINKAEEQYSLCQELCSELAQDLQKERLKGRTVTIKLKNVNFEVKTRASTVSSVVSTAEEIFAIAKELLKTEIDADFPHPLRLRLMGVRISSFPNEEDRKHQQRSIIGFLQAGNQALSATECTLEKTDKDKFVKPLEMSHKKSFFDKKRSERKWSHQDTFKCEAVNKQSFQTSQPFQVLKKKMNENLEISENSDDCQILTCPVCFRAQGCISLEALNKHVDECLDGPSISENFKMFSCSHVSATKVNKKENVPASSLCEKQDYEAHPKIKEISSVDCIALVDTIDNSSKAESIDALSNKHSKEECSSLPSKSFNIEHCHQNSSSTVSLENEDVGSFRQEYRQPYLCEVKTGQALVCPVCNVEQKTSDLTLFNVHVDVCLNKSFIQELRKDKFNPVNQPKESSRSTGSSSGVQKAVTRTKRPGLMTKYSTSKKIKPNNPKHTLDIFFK

Row | SMILES | Potency | activity, negative = inhibition
1 | COc1ccc(N2C(=O)c3ccccc3NC2c2ccc(OC)c(CSc3ccccn3)c2)cc1 (stereo not given) | inconclusive: 89.1 µM [inhibitor, partial curve, poor fit] | –
2 | CCOc1ccc(C=NNc2ccc(S(=O)(=O)Nc3ccccc3C(=O)O)cc2[N+](=O)[O-])cc1OC | inconclusive: 89.1 µM [inhibitor, single point] | –
3 | FC(F)(F)Oc1ccc(NC(=S)Nc2ccccc2N2CCOCC2)cc1 | inactive | –
4 | COc1ccc(C(=O)N(Cc2ccc(C(C)C)cc2)C2CCS(=O)(=O)C2)cc1 (stereo not given) | inconclusive: 79.4 µM [inhibitor, partial curve, poor fit] | –
5 | COc1cccc(/C=N/Nc2ncnc3c2[nH]c2ccc(C)cc23)c1OC | inconclusive: 89.1 µM [inhibitor, partial curve, poor fit] | –
6 | CC(C)c1ccc(S(=O)(=O)/N=C2/C=C(Sc3ncn[nH]3)C(=O)c3ccccc32)cc1 | active: 79.4 µM | –
7 | S=C(NCCCN1CCOCC1)NC1CC1 | inactive | –
8 | Cc1cc(C(=O)N/N=C/c2cc(Br)cc([N+](=O)[O-])c2O)c2ccccc2n1 | inconclusive: 12.6 µM [inhibitor, full curve] | –
9 | CCCCNC(C(=O)Nc1ccc([N+](=O)[O-])cc1Br)c1ccccc1 (stereo not given) | inactive | –
10 | COCc1c(C(=O)OCC(=O)NCc2ccco2)oc2ccccc12 | inconclusive: 89.1 µM [inhibitor, partial curve, poor fit] | –
11 | Cc1onc(-c2ccccc2Cl)c1C(=O)Oc1cccc2cccnc12 | inactive | –
12 | CC(C)(C#CC(O)(c1ccccc1)c1ccccc1)N1CCCCC1 | inconclusive: 89.1 µM [inhibitor, single point] | –
13 | Cc1ccc(CNC(=O)CSc2ncccn2)cc1 | inconclusive: 100 µM [inhibitor, single point] | –
14 | O=C1CC(c2ccco2)CC(O)=C1C=Nc1cc(Cl)ccc1Cl (stereo not given) | inconclusive: 50.1 µM [inhibitor, partial curve, poor fit] | –
15 | COCCCNC(=O)/C(C#N)=C/c1ccc(OCC(=O)O)c(OC)c1 | active: 22.4 µM | –
16 | CCCCCCCCCCC/C=C\C(C)(C)/C=C\CCCC(=O)O | active: 26.7 µM | –
17 | Cc1c(-c2ccc(Br)cc2)nc2ccccn12 | inactive | –
18 | O=C(O)c1ccccc1NS(=O)(=O)c1ccc(NN=Cc2ccccc2F)c([N+](=O)[O-])c1 | inconclusive: 89.1 µM [inhibitor, single point] | –
19 | Cc1nc2ccccn2c(=O)c1NC(=O)c1ccc(C(F)(F)F)cc1 | inactive | –
20 | COc1ccc(/C=N/c2oc(C)c(C)c2C#N)c(OC)c1 | inactive | –
21 | COc1ccccc1-c1cc(C(=O)Nc2ccccc2C(F)(F)F)no1 | inconclusive: 100 µM [inhibitor, single point] | –
22 | Cc1cc(C)c2c(c1)C(=O)/C(=C/c1ccc(C(=O)O)cc1)CC2 | inactive | –
23 | CN1CCc2cc3c(c4c2[C@H]1[C@H](O)c1ccccc1-4)OCO3 | inconclusive: 89.1 µM [inhibitor, partial curve, poor fit] | –

Row | SMILES | Potency | activity, negative = inhibition
24 | CNC(=S)N/N=C(\C)c1ccc(Cl)c(Cl)c1 | inactive | –
25 | O=c1cc(/N=C/c2coc3c(ccc4ccccc43)c2=O)[nH]c(=S)[nH]1 | inconclusive: 79.4 µM [inhibitor, partial curve, poor fit] | –
26 | O=C(O)c1cccc(N/N=C/c2cccs2)c1 | inactive | –
27 | CON=C(C(=O)NC1C(=O)N2C(C(=O)O)=C(CSc3nc(=O)c(=O)[nH]n3C)CSC12)c1csc(N)n1 (stereo not given) | active: 39.8 µM | –
28 | Cc1cc(NC(=O)c2cc([N+](=O)[O-])cc([N+](=O)[O-])c2C)no1 | inconclusive: 79.4 µM [inhibitor, single point] | –
29 | N#Cc1c(SCC(=O)Nc2cccc(C(F)(F)F)c2)sc2c(O)cc(=O)[nH]c12 | active: 25.1 µM | –
30 | O=C1NC(=O)/C(=C\c2ccc(O)cc2O)S1 | active: 11.2 µM | –
31 | O=C1/C(=C\c2ccncc2)SC(=S)N1C1CCCCC1 | inactive | –
32 | C=CCn1c(=O)/c(=C/c2ccc(C)o2)s/c1=C(/C#N)C(=O)c1ccccc1 | inconclusive: 44.7 µM [inhibitor, partial curve, poor fit] | –
33 | CC[C@@H](C)[C@@H](CO[C@@H](Cc1ccccc1)C(=O)N[C@@H](CCS(C)(=O)=O)C(=O)OC(C)C)NC[C@@H](N)CS | inactive | –
34 | O=C(O)CSc1c2c(nc3cc(C(=O)Nc4cccc(C(F)(F)F)c4)ccc13)CCC2 | inconclusive: 79.4 µM [inhibitor, single point] | –
35 | O=[N+]([O-])c1cc(-c2ccc(/C=N/c3nc4ccccn4c3-c3ccco3)o2)ccc1Cl | inconclusive: 79.4 µM [inhibitor, partial curve, poor fit] | –
36 | O=C(O)CSC1=NS(=O)(=O)c2ccccc21 | inconclusive: 89.1 µM [inhibitor, partial curve, poor fit] | –
37 | CCOc1ccccc1C(O)C1=CC(=O)c2ccccc2C1=O (stereo not given) | inconclusive: 89.1 µM [inhibitor, single point] | –
38 | O=C1OCCN1C(=O)[C@H]1[C@H](c2ccc([N+](=O)[O-])cc2)C(c2cccc(Cl)c2)=NN1c1ccc(Br)cc1 | inconclusive: 0.0224 µM [inhibitor, full curve, poor fit] | –
39 | CCCCCSc1nc2sc3c(c2c(=O)n1-c1ccc(OC)cc1)CCN(C(C)=O)C3 | inconclusive: 100 µM [inhibitor, partial curve, poor fit] | –
40 | CC/C=C\C/C=C\C/C=C\C/C=C\C/C=C\CCCCCC(=O)O | – | inactive: -3.7% [at 19.4 µM]
41 | O=C(O)c1cccc(N2C(=O)CSC2=S)c1 | inconclusive: 89.1 µM [inhibitor, single point] | –
42 | Cc1ccc(/C=C(\C#N)C(=O)NCC2CCCO2)o1 (stereo not given) | inactive | –
43 | CSc1nnc(-c2sc(-c3ccccc3)nc2C)n1C | inconclusive: 89.1 µM [inhibitor, single point] | –
44 | Cc1cn2c(=O)cc(COc3ccc(Cl)cc3)nc2s1 | inactive | –
45 | NC(=O)c1c(NC(=O)CSc2nnc(-c3ccco3)n2-c2ccccc2)sc2c1CCC2 | inconclusive: 56.2 µM [inhibitor, partial curve, poor fit] | –
